Data published in paper PMC4336329 (PLoS ONE, 2015).
In all, about 310,000 compounds went through this assay and about 14,000 (4.5%) showed an effect of 50% or more. Effects have a minus sign here. Some of the results follow.

Each compound was assayed against human ether-à-go-go-related gene (hERG) potassium channel (human, UniProt Q12809) (assay: primary screen, population patch clamp on CHO cells stably expressing hERG).
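Also: peak tail current of the secondary pulse compared with the same well before compound.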

human ether-à-go-go-related gene (hERG) potassium channel, sequence (Q12809 whole entry, looked up): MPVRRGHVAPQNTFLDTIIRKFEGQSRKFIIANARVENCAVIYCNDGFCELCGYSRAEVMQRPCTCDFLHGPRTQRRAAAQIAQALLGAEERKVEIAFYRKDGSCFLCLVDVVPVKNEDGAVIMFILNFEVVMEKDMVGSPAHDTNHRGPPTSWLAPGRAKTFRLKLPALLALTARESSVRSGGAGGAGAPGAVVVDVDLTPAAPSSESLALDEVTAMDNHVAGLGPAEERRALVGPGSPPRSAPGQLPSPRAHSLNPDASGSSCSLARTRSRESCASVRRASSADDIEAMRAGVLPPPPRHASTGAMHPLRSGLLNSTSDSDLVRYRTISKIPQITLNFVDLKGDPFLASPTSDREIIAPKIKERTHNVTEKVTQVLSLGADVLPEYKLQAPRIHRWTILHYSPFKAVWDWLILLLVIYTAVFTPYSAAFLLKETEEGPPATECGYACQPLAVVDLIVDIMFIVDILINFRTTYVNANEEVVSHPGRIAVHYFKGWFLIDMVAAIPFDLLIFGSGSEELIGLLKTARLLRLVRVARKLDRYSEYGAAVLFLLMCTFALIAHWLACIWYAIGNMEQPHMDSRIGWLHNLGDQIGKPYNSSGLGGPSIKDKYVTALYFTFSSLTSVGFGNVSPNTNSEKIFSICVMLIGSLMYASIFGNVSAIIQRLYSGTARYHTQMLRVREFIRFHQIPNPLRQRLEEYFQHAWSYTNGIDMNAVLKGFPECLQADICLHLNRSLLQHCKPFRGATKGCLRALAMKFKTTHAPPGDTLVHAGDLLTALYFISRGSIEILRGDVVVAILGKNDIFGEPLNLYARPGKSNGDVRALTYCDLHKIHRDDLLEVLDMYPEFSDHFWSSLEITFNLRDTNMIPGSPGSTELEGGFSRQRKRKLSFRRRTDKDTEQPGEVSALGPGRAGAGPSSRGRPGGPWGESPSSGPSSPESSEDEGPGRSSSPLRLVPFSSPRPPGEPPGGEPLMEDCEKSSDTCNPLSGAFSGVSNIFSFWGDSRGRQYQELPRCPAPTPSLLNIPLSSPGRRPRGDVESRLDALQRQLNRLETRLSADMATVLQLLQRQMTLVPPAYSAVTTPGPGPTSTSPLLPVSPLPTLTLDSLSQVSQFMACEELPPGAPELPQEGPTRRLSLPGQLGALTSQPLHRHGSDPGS

Row | Structure (SMILES) | hERG current change (%, negative = inhibition) at 10uM [%]
1 | CCCC(=O)c1ccc(N2CCN(S(=O)(=O)c3ccccc3)CC2)c(F)c1 | 7.98
2 | Cc1ccc(NC(=O)C(=O)N2CCCC2)cc1Cl | 19.5
3 | O=C(NCCNC(=O)c1cc(OCC(F)(F)F)ccc1OCC(F)(F)F)Nc1cccc(C(F)(F)F)c1 | -21.8
4 | O=C(Nc1cccc([N+](=O)[O-])c1)Nc1ccc2c(c1)CCC2 | 14.4
5 | CN(C)S(=O)(=O)c1ccc(Cl)c(NC(=O)COC(=O)CN2C(=O)C3CCCCC3C2=O)c1 (centres unmarked) | 6.74
6 | O=C(O)c1ccc(COc2ccccc2/C=C2/NC(=O)N(c3cccc(Cl)c3)C2=O)cc1 | 13
7 | CCOc1ccccc1CNC(=O)C1CCC(=O)N1C(C)C (centres unmarked) | 1.56
8 | COc1cc(C(=O)N[C@H](C(=O)NC(C)C23CC4CC(CC(C4)C2)C3)C(C)C)cc(OC)c1OC (some centres unmarked) | 7.07
9 | Cc1ccc(-n2c(=S)[nH]c3c(oc4ccccc43)c2=O)cc1 | 14.8
10 | Cc1cccc(C)c1NC(=O)c1ccccc1C(=O)O | 11.5
11 | CCOC(=O)C1=C(C)NC(=O)NC1c1ccc(-c2ccc(F)cc2)o1 (centres unmarked) | -1.72
12 | CN(C)S(=O)(=O)c1ccc(/C(O)=C2/C(=O)C(=O)N(Cc3cccnc3)C2c2cccs2)cc1 (centres unmarked) | 5.83
13 | Fc1ccccc1Cn1nnc2c(NCc3ccccn3)ncnc21 | -11.2
14 | CC(C)[C@H](NS(=O)(=O)c1ccc(Cl)cc1)C(=O)OCC(=O)c1c(N)n(C)c(=O)n(C)c1=O | -39.9
15 | O=C(CN(c1ccc(F)cc1)S(=O)(=O)c1ccc2c(c1)OCCO2)N1CCOCC1 | -6.5
16 | CS(=O)(=O)c1ccc(NCC2CCCO2)c([N+](=O)[O-])c1 (centres unmarked) | 9.48
17 | CCOc1cc2c3c(c1)C1(Nc4ccccc4S1)C(=O)N3C(C)(C)CC2C (centres unmarked) | 10.4
18 | CCCc1cc(=O)oc2c3c(cc(OCC(=O)NCCCn4ccnc4)c12)OC(C)(C)CC3 | -73.9
19 | O=c1c(-c2ccccc2)cnc2n1CCS2 | -13.5
20 | Cc1ccc(S(=O)(=O)NC(=NC2CCCCC2)c2ccccc2)cc1 | -55.2
21 | Fc1cccc(Nc2ncnc3c2cnn3-c2ccccc2)c1 | 12.1
22 | Cc1ccc2[nH]c3c(=O)n(CC(=O)NCc4ccco4)ncc3c2c1 | 21.9

Row | Structure (SMILES) | hERG current change (%, negative = inhibition) at 10uM [%]
23 | Cc1cc(C)cc(N2C(N)=NC(N)=NC2c2ccccc2F)c1.Cl (centres unmarked) | 10.9
24 | CCC(=O)Nc1nnc(SCCN2CCOCC2)s1.Cl | 14.5
25 | Clc1ccc(CSc2ccc(-c3ccco3)nn2)cc1 | 19.1
26 | c1ccc(Cn2cnc3ccccc32)cc1 | 14.6
27 | COc1cccc(-c2nc(CS(=O)(=O)CC(=O)N3CCN(c4ccccn4)CC3)c(C)o2)c1 | -37.9
28 | COc1ccc(N(C(=O)C(C)C)S(=O)(=O)c2ccc(Cl)cc2)cc1 | -20.6
29 | O=C(COC(=O)c1ccc(Br)o1)Nc1ccc2[nH]c(=O)[nH]c2c1 | 9.74
30 | CC(=O)c1ccc(NC(=O)Nc2ccccc2)cc1 | -2.03
31 | O=C(C(=O)N1CCCc2ccccc21)c1c[nH]c2ccccc12 | 4.5
32 | Cc1ccsc1C(=O)N1CC(=O)Nc2ccccc21 | 6.74
33 | O=C(COc1ccccc1F)N1CCc2ccccc2C1 | -25
34 | Cc1ccc(S(=O)(=O)N2CCN(C(=O)CSc3nncs3)CC2)cc1 | -6.21
35 | COc1ccccc1CN(Cc1cc2cc(C)ccc2[nH]c1=O)Cc1nnnn1CC1CCCO1 (centres unmarked) | -18.8
36 | CC(C)c1ccc(S(=O)(=O)N2CCN(C(C)C(=O)NC3CCCC3)CC2)cc1 (centres unmarked) | -75.5
37 | C=CCSc1nc(N)c(C(=O)Nc2ccccc2OC)cc1C(=O)Nc1ccccc1 | -3.02
38 | COc1ccc(C(=O)OCC(=O)c2c(N)n(C)c(=O)n(C)c2=O)cc1OC | 17.4
39 | CCOc1ccc2nc(NC(=O)CN3CCN(C)CC3)sc2c1 | -15.7
40 | COc1cccc(NC(=O)c2nn(C34CC5CC(CC(C5)C3)C4)cc2[N+](=O)[O-])c1 | -10.1
41 | O=C(c1ccc(Cl)cc1)N1CCN(S(=O)(=O)/C=C/c2ccccc2)CC1 | -54.8
42 | COCc1c(C(=O)OCC(=O)Nc2ccc(OC(F)F)cc2)oc2ccccc12 | -29.8
43 | CCOC(=O)c1c(C=O)c2ccccc2n1Cc1ccccc1F | -2.35
44 | Cl.c1ccc(-c2ccc(OCCN3CCOCC3)cc2)cc1 | 3.74

Row | Structure (SMILES) | hERG current change (%, negative = inhibition) at 10uM [%]
45 | O=c1c(-c2ccco2)[n+]([O-])c2ccccc2n1OCc1c(F)cccc1F | 20.5
46 | COc1ccc(-c2nnc(SCC(=O)NCCC(C)C)nc2-c2ccc(OC)c(OC)c2)cc1OC | -38.3
47 | c1ccc(Oc2nnc(-c3cccs3)c3ccccc23)cc1 | -5.87
48 | N#C/C(=C\c1cccc2ccccc12)c1nn(-c2ccccc2)c(N)c1C#N | 3.7
49 | Cc1nc(C(F)(F)F)c(C(=O)N/N=C(\N)c2ccccn2)s1 | 9.32
50 | C/C(N)=C(/C#N)C(=O)COC(=O)CCSc1ccccc1 | 13
51 | COc1ccc(N=Cc2sc3ccccc3c2Cl)cc1 | 15
52 | CCN1CCN(c2ccc(S(=O)(=O)N3CCCCC3)cc2NC(=O)/C=C/c2ccc([N+](=O)[O-])cc2)CC1 | -70.8
53 | Cl.Nc1cccc2[nH]c(C(F)(F)F)nc12 | 20.5
54 | COC(=O)c1cn(Cc2ccccn2)c(=O)c2ccccc12 | 2.37
55 | O=C(NCc1ccc(OC(F)(F)F)cc1)c1ccc2c(c1)S(=O)(=O)c1ccccc1C2=O | -0.0191
56 | O=c1[nH]c(=S)n(-c2ccccc2F)c(O)c1C=NCCN1CCNCC1 | 21.9
57 | Cc1cccc(CNCCc2ccccc2)n1.Cl | -17.1
58 | Cc1cc(C)c(C(=O)COC(=O)C2CCN(c3ccc(C(F)(F)F)cn3)CC2)cc1C | 6.63
59 | CCOC(=O)c1c(NC(=O)CSc2nnc(C)s2)sc2c1CCN(C)C2 | -46.4
60 | Cc1cc(/C=C(\C#N)C(=O)NCc2ccco2)c(C)n1-c1ccc(C(=O)O)cc1 | 15.8
61 | CC(C)Oc1ccc(C(=O)CCN2CCCCC2)cc1 | -20.9
62 | O=C(c1cccnc1)N1CCN(S(=O)(=O)c2ccc3ccccc3c2)CC1 | -34.9
63 | CN(C)S(=O)(=O)c1ccc2c(c1)nc(CCC(=O)NCc1ccc(Cl)cc1)n2C | -30.5
64 | CCOc1ccc(NC(=O)C(Cc2ccccc2)N2C(=O)c3cccc4cccc(c34)C2=O)cc1 (centres unmarked) | 16.5
65 | O=C1CS/C(=N\NC(=O)c2ccccc2)N1 | 15.6
66 | CCCn1cnc2cc(NCc3ccc(Br)cc3)ccc21 | -73.9

Row | Structure (SMILES) | hERG current change (%, negative = inhibition) at 10uM [%]
67 | CCOC(=O)C1(CC2CCCCO2)CCN(Cc2nc3ccccc3[nH]2)CC1 (centres unmarked) | -19.5
68 | CCOc1ccc(S(=O)(=O)NC(Cc2c[nH]c3ccccc23)C(=O)O)cc1 (centres unmarked) | 10.4
69 | N#Cc1ccc(CSc2nnc(Nc3ccccc3)s2)cc1 | 10.5
70 | O=C(NCC(c1ccco1)N1CCCCC1)c1cc2c(s1)CCCC2 (centres unmarked) | -23.6
71 | Cc1cc(NC(=O)c2cnn3c(C(F)F)cc(-c4ccccc4)nc23)no1 | -8.36
72 | COc1cc(/C=N/NC(=S)NC2CC3C=CC2C3)cc(OC)c1OC (centres unmarked) | -18
73 | CC(C)CC(=O)NC(=S)Nc1cc(C(F)(F)F)ccc1N1CCOCC1 | 1.41
74 | CC1CCCCC1NC(=O)Cn1[nH]c(=O)c2ccccc2c1=O (centres unmarked) | 0.493
75 | Fc1ccccc1COc1ccc(/C=N/NC(=S)NCc2ccccc2)cc1 | 5.68
76 | COc1ccc(CN2C(=O)c3cccnc3C2=O)cc1S(=O)(=O)N1CCOc2ccc(Cl)cc21 | 1.2
77 | Cc1ccc2c(c1)-c1c(ssc1=S)C(C)(C)N2C(=O)CN1C(=O)c2ccccc2C1=O | 14.8
78 | CC(NCc1cccs1)C(=O)Nc1cc(Cl)cc(Cl)c1 (centres unmarked) | -2.04
79 | Cc1ccc2occ(/C=N/NC(N)=S)c(=O)c2c1 | 15
80 | CCCCCCN1C=C/C(=C\C=C(C#N)C#N)c2ccccc21 | -37.4
81 | CN1C(=O)NC2C1N(S(C)(=O)=O)CCN2S(C)(=O)=O (centres unmarked) | 17.8
82 | Cc1ccccc1NC(=O)Cn1c([N+](=O)[O-])cnc1C | 18.7
83 | Cc1ccc(-c2noc(-c3ccccc3C(=O)N3CCCC3)n2)cc1 | -32.3
84 | Cc1c(NS(=O)(=O)c2cc(C(=O)NCc3cccnc3)cc(Cl)c2Cl)c(=O)n(-c2ccccc2)n1C | -31.3
85 | Cc1cc(=O)n2nc(N3CCC(C(=O)Nc4c(F)c(F)c(F)c(F)c4F)CC3)sc2n1 | -18.5
86 | COc1ccc(/C=N/NC(=O)CN(C2=NS(=O)(=O)c3ccccc32)c2ccccc2)cc1OC | -9.44
